The list shows a part of the results. Each Rep nickase domain was tested in vitro on the same pool of single strands for 1 h at 37 °C with 3 µM enzyme; only the middle of the 90-letter strands is printed. The score is log2 (uncut reads / reads without enzyme); uncut sequences lie near 0, cut ones below; no hit call is given. Reads are scaled to the total; uncut strands gain when others are lost, and binding without cutting may add a little.
Legend:
Assay in all cases: uncleaved DNA left, log2 of reads against the no-enzyme library (log2 ratio); higher = less cleavage (more negative = more Rep cleavage of the k-mer); sequences stand for … in CTCGTCCG…ACCGGAGA
[1] = tested on: T1, Rep nickase domain of Muscovy duck circovirus
T1 sequence (residues 1-111 of Rep, tag left off): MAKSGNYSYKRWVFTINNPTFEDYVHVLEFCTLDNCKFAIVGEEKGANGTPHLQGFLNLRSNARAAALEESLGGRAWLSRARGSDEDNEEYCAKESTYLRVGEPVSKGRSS
Protocol: (§1)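 A pool of 90-nt single-stranded DNAs with seven random bases just before the constant AC of the nick site (name = the seven bases) was cut by 3 µM recombinant His6-SUMO-tagged Rep nickase domain (300 nM DNA, 50 mM HEPES pH 8.0, 50 mM NaCl, 1 mM MnCl2, 1 h, 37 °C, three replicates). Uncut DNA was amplified and sequenced.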

[2] = tested on: T2, Rep nickase domain of banana bunchy top virus
T2 sequence (residues 1-94 of Rep, tag left off): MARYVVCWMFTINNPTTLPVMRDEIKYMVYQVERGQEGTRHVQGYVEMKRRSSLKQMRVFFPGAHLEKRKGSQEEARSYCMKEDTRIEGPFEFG
Protocol: as §1

[3] = tested on: T3, Rep nickase domain of cabbage leaf curl virus
T3 sequence (residues 1-116 of Rep, tag left off): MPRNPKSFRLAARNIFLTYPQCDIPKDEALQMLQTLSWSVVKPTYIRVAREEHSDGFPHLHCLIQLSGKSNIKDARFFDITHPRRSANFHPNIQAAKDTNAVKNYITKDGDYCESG
Protocol: as §1

[4] = tested on: T4, Rep nickase domain of chickpea chlorotic dwarf virus
T4 sequence (residues 1-124 of Rep, tag left off): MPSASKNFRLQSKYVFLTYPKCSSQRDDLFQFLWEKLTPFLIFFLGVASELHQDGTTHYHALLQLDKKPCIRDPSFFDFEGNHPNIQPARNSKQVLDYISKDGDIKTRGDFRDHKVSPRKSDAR
Protocol: as §1

[5] = tested on: T5, Rep nickase domain of faba bean necrotic yellows virus
T5 sequence (residues 1-98 of Rep, tag left off): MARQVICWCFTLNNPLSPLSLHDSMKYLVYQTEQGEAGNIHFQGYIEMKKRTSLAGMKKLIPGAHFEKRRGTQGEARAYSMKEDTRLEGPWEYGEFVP
Protocol: as §1

[6] = tested on: T6, Rep nickase domain of maize striate mosaic virus
T6 sequence (residues 1-117 of Rep, tag left off): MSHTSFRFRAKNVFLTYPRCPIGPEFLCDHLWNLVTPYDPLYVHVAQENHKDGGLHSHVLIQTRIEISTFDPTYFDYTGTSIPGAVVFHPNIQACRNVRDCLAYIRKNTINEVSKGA
Protocol: as §1

[7] = tested on: T7, Rep nickase domain of porcine circovirus 2
T7 sequence (residues 2-116 of Rep, tag left off): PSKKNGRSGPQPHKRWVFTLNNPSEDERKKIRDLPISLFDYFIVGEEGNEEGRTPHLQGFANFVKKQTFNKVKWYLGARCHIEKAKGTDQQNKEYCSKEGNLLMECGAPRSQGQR
Protocol: as §1

[8] = tested on: T8, Rep nickase domain of tomato golden mosaic virus
T8 sequence (residues 1-124 of Rep, tag left off): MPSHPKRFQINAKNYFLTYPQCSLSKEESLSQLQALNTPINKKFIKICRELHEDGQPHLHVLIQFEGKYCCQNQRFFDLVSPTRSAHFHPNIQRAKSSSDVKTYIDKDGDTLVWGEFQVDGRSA
Protocol: as §1

[9] = tested on: T9, Rep nickase domain of tomato yellow leaf curl virus
T9 sequence (residues 1-136 of Rep, tag left off): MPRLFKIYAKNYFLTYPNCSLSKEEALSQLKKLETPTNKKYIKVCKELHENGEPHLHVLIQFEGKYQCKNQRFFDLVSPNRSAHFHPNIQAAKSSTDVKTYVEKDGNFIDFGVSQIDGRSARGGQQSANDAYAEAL
Protocol: as §1

[10] = tested on: T10, Rep nickase domain of wheat dwarf virus
T10 sequence (residues 1-137 of Rep, tag left off): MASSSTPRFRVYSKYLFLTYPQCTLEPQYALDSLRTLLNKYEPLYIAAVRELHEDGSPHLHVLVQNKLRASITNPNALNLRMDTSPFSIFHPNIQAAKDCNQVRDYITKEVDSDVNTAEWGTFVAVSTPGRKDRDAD
Protocol: as §1

Sequence | uncleaved DNA left (log2) [1] | uncleaved DNA left (log2) [2] | uncleaved DNA left (log2) [3] | uncleaved DNA left (log2) [4] | uncleaved DNA left (log2) [5] | uncleaved DNA left (log2) [6] | uncleaved DNA left (log2) [7] | uncleaved DNA left (log2) [8] | uncleaved DNA left (log2) [9] | uncleaved DNA left (log2) [10]
TTACTGG | 0.158 | 0.0444 | 0.377 | 0.549 | 0.134 | 1.03 | 0.285 | 0.139 | 0.0674 | 0.0359
TGGAAAT | 0.0385 | 0.123 | 0.862 | 1.97 | -0.00828 | 2.18 | 0.172 | 0.0923 | 0.143 | 0.279
ATCGGAG | 0.0377 | -0.0296 | -0.246 | 0.0695 | 0.0317 | -0.729 | 0.191 | 0.0552 | -0.0586 | -0.0135
GCACGAC | -0.0327 | -0.000501 | -0.0769 | 0.235 | -0.0622 | -0.36 | 0.0591 | -0.0212 | -0.0102 | -0.162
GAGAGGT | 0.169 | 0.104 | 0.388 | 1.09 | 0.0215 | 1.43 | -1.39 | 0.14 | 0.00696 | 0.127
TTTCATA | -0.0301 | -0.00186 | 0.049 | -0.669 | 0.0103 | 0.0771 | -0.154 | -0.0597 | -0.0308 | -0.0286
ACGGAAT | 0.006 | 0.00592 | 0.0381 | 0.5 | -0.114 | 0.616 | 0.111 | 0.284 | -0.0416 | -0.0228
ATCGCTA | 0.0266 | -0.0493 | -0.305 | -0.924 | 0.0622 | -0.783 | -0.132 | 0.0216 | -0.0214 | 0.084
ATTGTGG | 0.0752 | 0.0251 | -0.467 | -0.556 | 0.0699 | -1.02 | 0.152 | 0.0283 | 0.101 | -0.00266
AAGAGCG | -0.00841 | 0.0195 | -0.825 | -0.466 | 0.0814 | -1.18 | 0.181 | 0.0412 | 0.0555 | -0.0248
GACTTGG | -0.0065 | -0.0892 | -0.244 | 0.0918 | -0.0399 | -0.62 | 0.124 | -0.019 | -0.0518 | -0.0686
GCACTCT | -0.102 | -0.0736 | -0.28 | -1.72 | -0.155 | -0.178 | -0.0899 | -0.134 | -0.147 | -0.0791
GTACAGT | 0.078 | 0.146 | 0.427 | 0.835 | 0.0634 | 1.63 | 0.124 | -0.01 | 0.101 | 0.141
ATTCCTC | -0.0375 | 0.0885 | 0.0842 | 0.00683 | -0.0234 | -0.208 | -1.04 | -0.0186 | -0.00753 | 0.106
CCAAGCT | 0.116 | 0.0282 | 0.308 | 1.32 | 0.0256 | 1.55 | 0.0476 | 0.0259 | -0.105 | 0.0858
GGGGTCA | 0.00646 | 0.156 | 0.871 | 1.94 | 0.027 | 2.3 | 0.197 | 0.0767 | 0.048 | 0.0819
CCTCAAA | -0.096 | -0.177 | -0.0994 | -0.298 | -0.0414 | -0.707 | -0.0579 | -0.0715 | -0.189 | -0.0436
TATCGCT | -0.0631 | -0.0517 | -1.04 | -2.66 | -0.0266 | -1.28 | -1.07 | -0.031 | 0.0117 | -0.164
CACACTG | -0.0258 | 0.0117 | -0.164 | 0.289 | -0.0092 | 0.409 | -0.0391 | -0.0938 | -0.126 | -0.0178
GTGTCGC | -0.108 | 0.11 | 0.245 | 0.676 | 0.0106 | 1.2 | 0.176 | 0.0463 | 0.0356 | 0.0581
AAGCTCT | 0.208 | 0.0416 | -0.122 | -2.43 | 0.0706 | 0.564 | -2.87 | 0.23 | 0.1 | 0.0823
GATGCAT | -0.0557 | 0.0157 | 0.453 | 1.28 | -0.0397 | 1.35 | 0.086 | -0.122 | 0.0165 | 0.0943
TACCCGA | 0.00973 | -0.0885 | -0.311 | -1.36 | 0.0258 | -0.901 | -0.905 | -0.127 | 0.0229 | -0.196
GGCTACC | -0.0666 | 0.0252 | 0.355 | 0.511 | -0.0834 | 1.4 | -0.0605 | -0.0575 | -0.0494 | -0.00351
CCTCTCG | 0.159 | 0.185 | -0.691 | 0.068 | 0.0656 | -0.82 | 0.017 | 0.00534 | -0.1 | -0.0865
ACTTAAC | -0.0453 | -0.00297 | -0.507 | -1.25 | -0.0867 | -0.655 | 0.213 | 0.0794 | -0.0684 | -0.0284
AATACAA | 0.109 | 0.179 | 0.164 | -0.785 | 0.164 | -0.417 | 0.165 | 0.0623 | 0.169 | 0.219
TCGCGAG | 0.0935 | 0.0339 | 0.0432 | 0.17 | -0.168 | -0.719 | 0.115 | -0.0501 | 0.0679 | 0.000901
AGCATTT | -0.0376 | 0.0119 | -0.133 | -1.67 | -0.0793 | -0.424 | -0.982 | -0.0848 | 0.0157 | -0.0814

Source: the supplement of paper PMC7826260
